Reference: paper PMC4336329 (PLoS ONE, 2015)
Hit rate of the full screen: of about 310,000 compounds, about 14,000 (4.5%) showed an effect of 50% or more. Effects have a minus sign here. The list shows a part of the results.

These compounds were tested against human ether-à-go-go-related gene (hERG) potassium channel (human, UniProt Q12809) (assay: primary screen, population patch clamp on CHO cells stably expressing hERG).
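Also: peak tail current of the secondary pulse compared with the same well before compound.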

Chain of human ether-à-go-go-related gene (hERG) potassium channel (Q12809 whole entry, looked up): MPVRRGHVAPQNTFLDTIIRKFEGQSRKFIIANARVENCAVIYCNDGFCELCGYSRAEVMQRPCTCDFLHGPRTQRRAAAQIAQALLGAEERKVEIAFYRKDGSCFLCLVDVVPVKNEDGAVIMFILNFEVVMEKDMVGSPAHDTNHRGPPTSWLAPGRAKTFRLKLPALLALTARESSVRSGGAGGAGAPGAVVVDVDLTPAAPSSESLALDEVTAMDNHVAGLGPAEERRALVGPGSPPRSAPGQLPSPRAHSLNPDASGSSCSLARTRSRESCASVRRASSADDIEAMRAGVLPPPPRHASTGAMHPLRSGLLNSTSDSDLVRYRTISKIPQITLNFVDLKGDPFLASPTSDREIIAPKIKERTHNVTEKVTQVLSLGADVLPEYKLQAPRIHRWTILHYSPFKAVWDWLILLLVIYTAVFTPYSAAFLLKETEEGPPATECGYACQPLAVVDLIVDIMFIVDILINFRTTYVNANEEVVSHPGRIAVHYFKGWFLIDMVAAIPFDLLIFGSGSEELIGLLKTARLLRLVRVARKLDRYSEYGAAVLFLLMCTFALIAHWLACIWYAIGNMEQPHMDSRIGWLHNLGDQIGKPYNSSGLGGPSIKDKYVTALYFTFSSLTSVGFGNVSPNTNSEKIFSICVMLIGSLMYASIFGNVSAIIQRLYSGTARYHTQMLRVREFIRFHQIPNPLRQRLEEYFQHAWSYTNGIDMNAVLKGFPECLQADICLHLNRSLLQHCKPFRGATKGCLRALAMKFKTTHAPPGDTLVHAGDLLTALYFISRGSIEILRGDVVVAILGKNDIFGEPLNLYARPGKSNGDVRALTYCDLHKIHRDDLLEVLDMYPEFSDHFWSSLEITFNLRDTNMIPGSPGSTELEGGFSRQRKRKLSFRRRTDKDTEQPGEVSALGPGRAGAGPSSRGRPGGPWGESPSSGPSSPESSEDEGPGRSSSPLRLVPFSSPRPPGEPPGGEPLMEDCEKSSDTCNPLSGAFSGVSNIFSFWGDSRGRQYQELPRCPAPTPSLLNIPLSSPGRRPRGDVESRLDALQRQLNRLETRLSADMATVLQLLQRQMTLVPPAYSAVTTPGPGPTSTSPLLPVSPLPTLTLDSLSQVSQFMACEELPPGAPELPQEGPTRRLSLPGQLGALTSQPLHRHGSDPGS

First: Cc1cccc(C)c1NC(=O)CN1CCN(C(=O)CNC(=O)c2ccc(N3CCCC3=O)cc2)CC1
Second: Cc1cccc(C)c1NC(=O)Cn1cc(C=O)c2ccccc21
The “hERG current change (%, negative = inhibition) at 10uM” value of the first is lower: 11.8% for the first, 13.7% for the second.

First: Cn1nnnc1NCc1cccc(Cl)c1Cl
Second: C=CCOc1c(CNn2nnnc2N)cccc1OC
The “hERG current change (%, negative = inhibition) at 10uM” value of the first is lower: 4.08% for the first, 6.68% for the second.

Going from `CSc1c(SCc2ccccc2)cnn(Cc2ccccc2)c1=O` to `C/C(CC(=O)NC(C)C)=N\NC(=O)C(c1ccccc1)c1ccccc1`, the “hERG current change (%, negative = inhibition) at 10uM” value rises from -11% to 9.95%.

First: CN(C(=O)c1cnccn1)c1nnc(-c2cnccn2)s1
Second: Cc1ccc(-c2[nH]c(=O)n3ccncc23)s1
The “hERG current change (%, negative = inhibition) at 10uM” value of the first is higher: 19.8% for the first, 13.7% for the second.

First: CN1CCc2c(sc3nc(SCC(N)=O)n(-c4ccc(Cl)cc4)c(=O)c23)C1
Second: CC(=O)NCCc1nc2cc(NC(=O)c3ccc(Cl)cc3)ccc2n1C
The “hERG current change (%, negative = inhibition) at 10uM” value of the first is higher: 5.01% for the first, 0.932% for the second.

Going from `COc1ccc(OC)c(-c2cc(C(=O)NCc3ccco3)no2)c1` to `COc1ccc(C(=O)Nc2nnc(Cc3cccs3)s2)cc1OC`, the “hERG current change (%, negative = inhibition) at 10uM” value falls from 1.06% to 0.689%.

Going from `CC[n+]1ccc(/C=C/c2c[nH]c3ccccc23)cc1.[Cl-]` to `O=[N+]([O-])c1cccc(C=Nc2cccc3ccccc23)c1O`, the “hERG current change (%, negative = inhibition) at 10uM” value rises from -6.54% to 12.7%.

First: Cc1cccc(N2CCN(C(=O)c3ccc4nc[nH]c4c3)CC2)c1C
Second: COc1ccc(C(=O)N2CCN(Cc3ccccc3)CC2)cc1[N+](=O)[O-]
The “hERG current change (%, negative = inhibition) at 10uM” value of the first is higher: -37.9% for the first, -52% for the second.

Compared with `COc1ccc(Oc2cnc3ccccc3n2)cc1`, `c1ccc2nc(-c3ccncc3)ccc2c1` is higher in “hERG current change (%, negative = inhibition) at 10uM” value: 3.96% for the first, 23.4% for the second.

Going from `O=C(CN1C(=O)COc2ccccc21)NCCCN1CCN(c2ccccc2F)CC1` to `O=C(NCc1cccs1)C(=O)NCC(c1ccco1)N1CCN(c2ccccc2F)CC1` (stereo not shown), the “hERG current change (%, negative = inhibition) at 10uM” value rises from -10.7% to -2.25%.

First: O=C(N/N=C/c1cccc(OC(=O)c2cccc(Br)c2)c1)c1ccncc1
Second: O=C(N/N=C/c1ccncc1)c1nc2ccccc2c(=O)[nH]1
The “hERG current change (%, negative = inhibition) at 10uM” value of the first is higher: 2.67% for the first, -8.65% for the second.

First: COc1ccccc1CNC(=O)CN(C)S(=O)(=O)c1ccc(Br)s1
Second: C=CCNC(=S)NCc1ccccc1OC
The “hERG current change (%, negative = inhibition) at 10uM” value of the first is lower: -23.8% for the first, -10.1% for the second.

Going from `NC(=S)N/N=C/c1cc([N+](=O)[O-])ccc1OCCOc1ccccc1` to `NC(=O)c1ccc(Oc2ccc3ccc(=O)oc3c2)c([N+](=O)[O-])c1`, the “hERG current change (%, negative = inhibition) at 10uM” value falls from -1.93% to -15.1%.

Going from `CC(=O)Nc1cccc(NC(=O)CSc2ncc(-c3ccc(Cl)cc3)n2Cc2ccco2)c1` to `C=Cc1cccc(NC(=O)c2ccc(NC(=O)c3ccco3)cc2)c1`, the “hERG current change (%, negative = inhibition) at 10uM” value falls from -9.51% to -17.2%.

Going from `Nc1ccc(-c2nc3ccc(N)cc3[nH]2)cc1` to `COc1ccc(C2=CC(c3ccc(C)cc3)n3nnnc3N2)cc1` (stereo not shown), the “hERG current change (%, negative = inhibition) at 10uM” value falls from 7.85% to -6.67%.

First: COc1cc(OC)c2ccc(=O)oc2c1C(CC(=O)N1CCOCC1)c1ccc(N(C)C)cc1 (stereo not shown)
Second: COc1ccccc1NS(=O)(=O)c1cc(C(=O)NCC(C)(C)N2CCOCC2)ccc1C
The “hERG current change (%, negative = inhibition) at 10uM” value of the first is higher: 17.9% for the first, -31.3% for the second.

Compared with `O=C(Nc1cccnc1)c1cn(-c2ccccc2)nc1-c1cccs1`, `Cn1cc(/C=C2/SC(=O)N(c3ccccc3)C2=O)c2ccccc21` is higher in “hERG current change (%, negative = inhibition) at 10uM” value: 12.2% for the first, 14.6% for the second.

Compared with `CCN1C(=O)N/C(=C/c2cc(C)n(Cc3ccccc3)c2C)C1=O`, `CCOC(=O)C1(Cc2ccccc2)CCCN(C(=O)c2cn[nH]c2)C1` (stereo not shown) is higher in “hERG current change (%, negative = inhibition) at 10uM” value: 1.63% for the first, 13.4% for the second.

Compared with `CC1CC(C)CN(C(=O)C2CCN(S(=O)(=O)c3cccc4cccnc34)CC2)C1` (stereo not shown), `COc1ccc(N(C(=O)C2CCCCC2)S(=O)(=O)c2cccc3cccnc23)cc1` is lower in “hERG current change (%, negative = inhibition) at 10uM” value: -6.68% for the first, -20.7% for the second.

Going from `CCOc1ccc(CCNC(=O)CCc2nnc3ccc(N4CCOCC4)nn23)cc1OCC` to `CCC(C)C(NS(=O)(=O)c1ccc(C)cc1)C(=O)NCCCN1CCOCC1` (stereo not shown), the “hERG current change (%, negative = inhibition) at 10uM” value rises from 3.99% to 20.7%.

Going from `COc1cccc2c1SCc1ccccc1C2CC(N)=O` (stereo not shown) to `COc1cc(/C=C2/C(=O)ON=C2C)ccc1OCc1ccccc1F`, the “hERG current change (%, negative = inhibition) at 10uM” value falls from 10.1% to 2.22%.

First: OC1=C(O)c2nc3ccccc3nc21
Second: CCc1cc2c(Nc3ccc(O)cc3)nc(C)nc2s1.Cl
The “hERG current change (%, negative = inhibition) at 10uM” value of the first is lower: -1.17% for the first, 8.46% for the second.

First: O=C(COC(=O)c1cc(Cl)nc2ccccc12)c1ccc(Cl)cc1
Second: O=C(NNC(=S)Nc1ccccc1)c1cc(Br)ccc1Cl
The “hERG current change (%, negative = inhibition) at 10uM” value of the first is higher: 18.5% for the first, 12.2% for the second.

Going from `CCOc1ccc2nc(Cl)c(C3CC(c4ccco4)=NN3S(=O)(=O)c3ccccc3)cc2c1` (stereo not shown) to `COc1ccc(C2=NN(c3ccc(C(=O)O)cc3)C(c3ccc(OC)c(OC)c3)C2)cc1` (stereo not shown), the “hERG current change (%, negative = inhibition) at 10uM” value rises from -14.1% to 2.92%.

Going from `COc1ccc(-n2ncc3c2CC(C)(C)CC3NC(=O)CCn2nc(C)cc2C)cc1` (stereo not shown) to `CCOC(=O)c1ccc(Nc2cc(C)nc(C)c2C(=O)OCC)cc1.Cl`, the “hERG current change (%, negative = inhibition) at 10uM” value falls from -14% to -62.6%.

Compared with `COC(=O)Cc1c(C)c2ccc(OCC(=O)NC3CCS(=O)(=O)C3)cc2oc1=O` (stereo not shown), `CC[C@@H](C)[C@H](NC(=O)Cc1c(C)c2cc3c(C)coc3c(C)c2oc1=O)C(=O)O` is lower in “hERG current change (%, negative = inhibition) at 10uM” value: 26.8% for the first, 6.21% for the second.

Compared with `COCC(=O)N(CCN(C)C)Cc1cc2cc3c(cc2nc1Cl)OCO3.Cl`, `Cc1cc(C)nc(N2CCCC(C(=O)Nc3ccc4c(c3)OCCO4)C2)n1` (stereo not shown) is higher in “hERG current change (%, negative = inhibition) at 10uM” value: 9.38% for the first, 14.4% for the second.

Going from `CC(=O)c1ccc(NS(=O)(=O)c2ccc3c(c2)N(C)CCO3)cc1` to `Cc1ccc(NS(=O)(=O)c2ccc3c(c2)n(C)c(=O)n3C)c(C)c1`, the “hERG current change (%, negative = inhibition) at 10uM” value falls from 11.6% to -11.5%.

Going from `CCC(NC(=O)NCc1ccccc1)(C(F)(F)F)C(F)(F)F` to `Br.O=C(Cn1c(NCCCO)nc2ccccc21)c1ccco1`, the “hERG current change (%, negative = inhibition) at 10uM” value falls from 5.5% to 2.48%.

First: O=C(CN(CC1CCCO1)C(=O)CCC(=O)Nc1nccs1)NCC1CCCO1 (stereo not shown)
Second: Cc1cc(S(=O)(=O)N2CCCOC2CNC(=O)C(=O)NCCc2ccco2)ccc1F (stereo not shown)
The “hERG current change (%, negative = inhibition) at 10uM” value of the first is lower: -5.53% for the first, -1.91% for the second.

First: COc1ccc(N=C2SC(C(=O)O)CC(=O)N2Cc2ccc(OC)c(OC)c2)cc1 (stereo not shown)
Second: COc1ccc(-c2coc3cc(OC4OC(CO)C(O)C(O)C4O)ccc3c2=O)cc1 (stereo not shown)
The “hERG current change (%, negative = inhibition) at 10uM” value of the first is lower: 2.27% for the first, 4.06% for the second.

First: CC(=O)Nc1nnc(SCC(=O)N2CCCc3ccccc32)s1
Second: Cn1cc(CN2CCc3sccc3C2)c(-c2ccccc2F)n1
The “hERG current change (%, negative = inhibition) at 10uM” value of the first is higher: 6.76% for the first, -4.7% for the second.

First: C=CCSc1nnc(-c2nnc(SCC=C)n2-c2ccccc2)n1-c1ccccc1
Second: Br.c1ccc(-c2csc(Nc3ccc4c(c3)OCCO4)n2)cc1
The “hERG current change (%, negative = inhibition) at 10uM” value of the first is lower: -37.7% for the first, 5.4% for the second.

First: Cn1cc(CN2CCC(O)CC2)c(-c2ccc(Oc3ccccc3)cc2)n1
Second: CCOc1ccc(S(=O)(=O)N2CCN(C)CC2)cc1NC(=O)c1ccccc1F
The “hERG current change (%, negative = inhibition) at 10uM” value of the first is higher: -23.7% for the first, -48.5% for the second.

Compared with `CCCCNC(=O)Cn1nc(-c2ccc(C)cc2)ccc1=O`, `CN(C)CCCNC(=O)c1cc(C(=O)c2ccc(F)cc2)c[nH]1` is lower in “hERG current change (%, negative = inhibition) at 10uM” value: -1.13% for the first, -68.5% for the second.

Compared with `COc1ccc(NC(=O)CN2CCCN(S(=O)(=O)c3ccc(F)cc3)CC2)cc1`, `COc1ccc(N2CCN(S(=O)(=O)c3ccc4c(c3)OCCO4)CC2)cc1` is higher in “hERG current change (%, negative = inhibition) at 10uM” value: -36.5% for the first, 3.84% for the second.

Compared with `COc1cc(NC(=S)NN2CCN(C)CC2)cc(OC)c1OC`, `COc1cc(NC(=O)CN2CCCCC2C)c(C)cc1[N+](=O)[O-]` (stereo not shown) is lower in “hERG current change (%, negative = inhibition) at 10uM” value: -3.14% for the first, -18% for the second.

Going from `COc1ccccc1C(=O)NC1CC(C)(C)NC(C)(C)C1` to `COc1ccc(C2C(C#N)=C(N)OC3=C2C(=O)CC(C)(C)C3)c(OC)c1OC` (stereo not shown), the “hERG current change (%, negative = inhibition) at 10uM” value falls from 20.5% to 4.34%.

First: CCN(CC)C(=O)Cn1cc(SCC(=O)NCc2ccco2)c2ccccc21
Second: O=C(CSc1ccsc1[N+](=O)[O-])NCc1ccco1
The “hERG current change (%, negative = inhibition) at 10uM” value of the first is higher: -1.42% for the first, -5.43% for the second.

Compared with `CC(C)C(NS(=O)(=O)c1cccs1)C(=O)NCCN1CCN(c2ccccc2)CC1` (stereo not shown), `O=C(NCCCN1CCOCC1)c1ccc(CS(=O)(=O)c2c(Cl)cccc2Cl)o1` is higher in “hERG current change (%, negative = inhibition) at 10uM” value: -20.9% for the first, 2.35% for the second.

First: CC(C(N)=O)N1c2cccc3cccc(c23)S1(=O)=O (stereo not shown)
Second: CCN(C(=O)c1ccc(Br)o1)C1CCS(=O)(=O)C1 (stereo not shown)
The “hERG current change (%, negative = inhibition) at 10uM” value of the first is higher: 4.59% for the first, 4.44% for the second.

Compared with `Cc1ccc2cc(CN(CC3CCCO3)S(=O)(=O)c3c(C)ccc4nsnc34)c(=O)[nH]c2c1` (stereo not shown), `O=c1c2ccccc2c(C=NCCCN2CCOCC2)c(O)n1Cc1ccc2c(c1)OCO2` is lower in “hERG current change (%, negative = inhibition) at 10uM” value: -4.15% for the first, -34.3% for the second.

Going from `O=C(COc1ccc(S(=O)(=O)N2CCCCC2)cc1)N1CCCCCC1` to `CC/C(=N\NC(=O)c1ccccc1Cl)c1c(O)n(C2CCCCC2)c(=O)[nH]c1=O`, the “hERG current change (%, negative = inhibition) at 10uM” value rises from -6.75% to 2.68%.

First: Cc1ccc(CN(Cc2ccco2)C(=S)NCC(=O)NC2CC2)cc1
Second: Nc1ccc[n+](Cc2ccccn2)c1.[Br-]
The “hERG current change (%, negative = inhibition) at 10uM” value of the first is lower: -10.1% for the first, 20.3% for the second.
